The values that follow come from publication PMC4336329 (PLoS ONE, 2015).

Among all 310,000 compounds or so, about 2,200 (0.71%) showed an effect of 50% or more. Effects have a minus sign here. This is one part of the list.

Sequence of human ether-à-go-go-related gene (hERG) potassium channel (Q12809 whole entry, looked up): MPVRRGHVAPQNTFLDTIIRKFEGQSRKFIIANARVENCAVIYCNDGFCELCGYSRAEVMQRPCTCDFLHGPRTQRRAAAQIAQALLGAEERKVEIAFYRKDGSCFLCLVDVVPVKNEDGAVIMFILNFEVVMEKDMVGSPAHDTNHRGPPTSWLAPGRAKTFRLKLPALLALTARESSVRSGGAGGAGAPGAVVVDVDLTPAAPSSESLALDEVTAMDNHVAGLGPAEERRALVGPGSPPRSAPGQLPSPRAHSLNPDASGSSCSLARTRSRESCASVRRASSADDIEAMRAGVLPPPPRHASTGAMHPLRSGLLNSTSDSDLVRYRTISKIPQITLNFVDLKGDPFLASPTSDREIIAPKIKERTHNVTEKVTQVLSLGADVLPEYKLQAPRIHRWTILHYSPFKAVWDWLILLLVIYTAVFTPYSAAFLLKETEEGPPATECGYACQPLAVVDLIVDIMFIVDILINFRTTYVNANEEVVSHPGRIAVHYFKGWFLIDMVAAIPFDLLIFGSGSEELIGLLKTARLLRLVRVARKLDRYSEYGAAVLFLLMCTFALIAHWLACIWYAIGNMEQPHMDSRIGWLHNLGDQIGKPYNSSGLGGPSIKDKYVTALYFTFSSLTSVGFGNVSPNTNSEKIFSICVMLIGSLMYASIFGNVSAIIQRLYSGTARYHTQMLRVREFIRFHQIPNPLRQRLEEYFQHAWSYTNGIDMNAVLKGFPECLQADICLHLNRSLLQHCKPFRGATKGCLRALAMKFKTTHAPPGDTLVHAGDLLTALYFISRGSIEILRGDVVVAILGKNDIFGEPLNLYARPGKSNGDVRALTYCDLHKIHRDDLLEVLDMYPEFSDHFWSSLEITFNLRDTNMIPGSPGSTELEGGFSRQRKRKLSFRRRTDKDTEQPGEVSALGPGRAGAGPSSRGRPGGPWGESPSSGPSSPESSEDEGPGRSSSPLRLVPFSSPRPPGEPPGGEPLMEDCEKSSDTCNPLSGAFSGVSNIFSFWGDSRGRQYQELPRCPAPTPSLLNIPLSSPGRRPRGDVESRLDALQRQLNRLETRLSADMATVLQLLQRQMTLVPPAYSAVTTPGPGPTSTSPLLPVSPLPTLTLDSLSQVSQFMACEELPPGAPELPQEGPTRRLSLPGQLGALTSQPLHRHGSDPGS

The test addresses human ether-à-go-go-related gene (hERG) potassium channel (human, UniProt Q12809). In words: primary screen, population patch clamp on CHO cells stably expressing hERG.
In the case of `NC(=O)CCn1c(C(=O)c2ccc(Cl)cc2)c2ccccc2[n+]1[O-]`, the “hERG current change (%, negative = inhibition) at 1uM” value came to 6.92%.
For the molecule `COc1ccc(OC)c(S(=O)(=O)Nc2ccccc2C(=O)O)c1`, the “hERG current change (%, negative = inhibition) at 1uM” value is 6.96%.
On to `CCS(=O)(=O)N1N=C(c2cccc(NS(C)(=O)=O)c2)CC1c1ccccc1` (stereo not shown), for which the “hERG current change (%, negative = inhibition) at 1uM” value was -5.65%.
For `Cc1cccc(/C=C/C(=O)c2cc(Br)ccc(=O)c2O)c1` the value was 21%.
On to `CN1CCN(c2oc(-c3cccs3)nc2S(=O)(=O)c2ccccc2)CC1`, for which the “hERG current change (%, negative = inhibition) at 1uM” value was -0.0938%.
Turning to `Cc1ccc(Sc2ccc([N+](=O)[O-])cc2[N+](=O)[O-])nc1`, the “hERG current change (%, negative = inhibition) at 1uM” value amounted to 7.83%.
As to `CCOC(=O)c1c(S(=O)(=O)NCc2ccco2)c(C)n(C)c1C`, the “hERG current change (%, negative = inhibition) at 1uM” value is listed as 9.49%.
For `Cc1cccc(C)c1NC(=S)N=Nc1c(O)n(C)c2ccc(S(=O)(=O)N3CCOCC3)cc12`, the “hERG current change (%, negative = inhibition) at 1uM” value stood at 18.5%.
As to `O=c1[nH]c(CSc2nnc3ccccn23)nc2ccccc12`, the “hERG current change (%, negative = inhibition) at 1uM” value was -6.33%.
Take `Cc1ccc(NC(=O)COC(=O)c2ccc([N+](=O)[O-])s2)c(C)c1`: the “hERG current change (%, negative = inhibition) at 1uM” value is 15.6%.
In the case of `CC1(c2ccc([N+](=O)[O-])cc2)NC(=O)N(CC(=O)Nc2ccc(N3CCCCC3)cc2)C1=O` (stereo not shown), the “hERG current change (%, negative = inhibition) at 1uM” value stood at 14.8%.
Regarding `C=CCn1c(C2CCCCC2)n[nH]c1=S`, the “hERG current change (%, negative = inhibition) at 1uM” value was 11.6%.
On to `CCCc1cc(=O)oc2c3c(cc(OCC(=O)NCc4ccccn4)c12)OC(C)(C)CC3`, for which the “hERG current change (%, negative = inhibition) at 1uM” value is reported as 8.03%.
For `CC(C)(C)c1ccc(S(=O)(=O)N2CCC(NC(=O)c3ccco3)CC2)cc1` the value was 10.1%.
For `Cc1ccc(-c2cccc(C3CC=CC4C3C(=O)N(Cc3ccccc3)C4c3ccc(C(F)(F)F)cc3)c2)cc1` (stereo not shown), the “hERG current change (%, negative = inhibition) at 1uM” value turned out to be 18.2%.
Take `C=CCn1c(SCC(=O)NC)nc2sc3c(c2c1=O)CCC3`: the “hERG current change (%, negative = inhibition) at 1uM” value was -0.307%.
Consider `Cc1ccc(C(=O)Nc2cccc(C(=O)N/N=C/c3ccc(O)cc3)c2)cc1`, for which the “hERG current change (%, negative = inhibition) at 1uM” value is 19%.
For `O=C(Nc1ccccc1)Nc1cccc(NC(=O)Nc2ccccc2)c1F` the value was 10.5%; for `COc1ccc(/C=C/C(=O)NC(=S)Nc2ccccc2C(=O)NC2CCCCC2)cc1`, 10.4%.
As to `Cc1cc(C(=O)COc2cccnc2[N+](=O)[O-])c(C)n1-c1ccccc1F`, the “hERG current change (%, negative = inhibition) at 1uM” value was 10.2%.
On to `CN(c1ccccc1)S(=O)(=O)c1cccc(NC(=O)CSc2nnc(N)s2)c1`, for which the “hERG current change (%, negative = inhibition) at 1uM” value amounted to 16.7%.
Turning to `CN1CCN(c2ccc(S(=O)(=O)N3CCCCC3)cc2N)CC1.Cl`, the “hERG current change (%, negative = inhibition) at 1uM” value is given as 5.18%.
For the molecule `O=C(COC(=O)Cn1cnc2ccccc21)Nc1ccc2c(c1)OCCO2`, the “hERG current change (%, negative = inhibition) at 1uM” value came out at 12.4%.
For `CCN(CC(=O)Nc1ccccc1OC)C(=O)c1ccc(N(C)S(=O)(=O)c2ccc(C)cc2)cc1`, the “hERG current change (%, negative = inhibition) at 1uM” value is given as -20.2%.
`CC(=O)NC1C2CN3CCN(C2)CC1(Cc1ccccc1)C3` (stereo not shown): the “hERG current change (%, negative = inhibition) at 1uM” value is listed as 11%.
For `Cc1nc2cc(-n3ccc(=O)cc3)ccc2n1-c1ccccc1`, the “hERG current change (%, negative = inhibition) at 1uM” value is -4.93%.
On to `CCOc1ccc(N(Cc2ccccc2F)C2=NC3CS(=O)(=O)CC3S2)cc1` (stereo not shown), for which the “hERG current change (%, negative = inhibition) at 1uM” value amounted to 0.869%.
With `CCOc1ccc(CCNC(=O)COC(=O)c2nn(C)c(=O)c3ccccc23)cc1OCC`, the “hERG current change (%, negative = inhibition) at 1uM” value came to 2.8%.
The same measure for `Br.COc1cc(NS(=O)(=O)c2ccc(Nc3nc(-c4ccccn4)cs3)cc2)nc(OC)n1`: 12.7%.
The same measure for `N/C(CSc1ncccc1C(F)(F)F)=N\O`: 11%; for `COc1ccc(C2NCCc3[nH]cnc32)cc1` (stereo not shown): 0.887%; for `C/C(=N\N1CCN(c2ccccc2)CC1)c1ccccc1O`: 10.4%.
In the case of `CCc1ccc(NC2=NCC(c3ccccc3)S2)cc1` (stereo not shown), the “hERG current change (%, negative = inhibition) at 1uM” value came to 14.1%.
Turning to `O=C(c1cccc(C(F)(F)F)c1)c1c[nH]c(C(=O)NCCCN2CCOCC2)c1`, the “hERG current change (%, negative = inhibition) at 1uM” value was -8.13%.
For `O=C(c1ccc([N+](=O)[O-])cc1)N(Cc1cccs1)C1CCS(=O)(=O)C1` (stereo not shown), the “hERG current change (%, negative = inhibition) at 1uM” value is on record as -5.4%.
Regarding `COc1ccc(C(=O)NC(=S)Nc2cccnc2)cc1[N+](=O)[O-]`, the “hERG current change (%, negative = inhibition) at 1uM” value amounted to 5.33%.
Turning to `O=C(O)c1ccc2c(c1)C(=O)N(Cc1ccco1)C2=O`, the “hERG current change (%, negative = inhibition) at 1uM” value was 17.2%.
Turning to `C[C@@H]1CC=C[C@H]2[C@H]1C(=O)N(Cc1ccccc1)[C@H]2c1ccoc1`, the “hERG current change (%, negative = inhibition) at 1uM” value is given as 17.3%.
Turning to `CCc1ccc(OCc2nnc(NC(=O)c3cccs3)s2)cc1`, the “hERG current change (%, negative = inhibition) at 1uM” value is reported as 9.92%.
Regarding `COc1ccc(OC)c(C(=O)N/N=C/c2ccccn2)c1`, the “hERG current change (%, negative = inhibition) at 1uM” value is reported as 13.9%.
Regarding `O=C(CN1CCCC1)NN=C(c1ccccc1)c1ccccc1`, the “hERG current change (%, negative = inhibition) at 1uM” value is on record as -49%.
`N#C/C(C(=O)N1CCOCC1)=C1/SC(Cc2ccccc2Cl)C(=O)N1c1ccccc1` (stereo not shown): the “hERG current change (%, negative = inhibition) at 1uM” value is on record as -6.25%.
`COc1ccc(S(=O)CC(=O)Nc2ccc(Cl)cc2Cl)cc1` (stereo not shown): the “hERG current change (%, negative = inhibition) at 1uM” value worked out at 10%.
